Assay in all cases: co-IP; in vivo: intact C. jejuni cells cross-linked with 0.1% formaldehyde (30 min, 37°C), osmotic lysis, 1% Triton X-100 solubilisation; FLAG-tagged bait expressed from a plasmid in the respective single mutant (and double mutants lacking FliN, FliH or another C-ring protein) precipitated with anti-FLAG M2 affinity resin overnight at 4°C, washed with RIPA buffer; native preys detected by immunoblot with specific antisera
(In general: Immunoblotting shows a protein as a band on a membrane.)

By UniProt entry, the sequences of proteins in these tests, tags left out.
UniProt O32370: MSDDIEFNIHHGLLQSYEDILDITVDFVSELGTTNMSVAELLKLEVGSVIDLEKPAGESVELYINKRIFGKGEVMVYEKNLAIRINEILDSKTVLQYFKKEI
UniProt Q0PC73: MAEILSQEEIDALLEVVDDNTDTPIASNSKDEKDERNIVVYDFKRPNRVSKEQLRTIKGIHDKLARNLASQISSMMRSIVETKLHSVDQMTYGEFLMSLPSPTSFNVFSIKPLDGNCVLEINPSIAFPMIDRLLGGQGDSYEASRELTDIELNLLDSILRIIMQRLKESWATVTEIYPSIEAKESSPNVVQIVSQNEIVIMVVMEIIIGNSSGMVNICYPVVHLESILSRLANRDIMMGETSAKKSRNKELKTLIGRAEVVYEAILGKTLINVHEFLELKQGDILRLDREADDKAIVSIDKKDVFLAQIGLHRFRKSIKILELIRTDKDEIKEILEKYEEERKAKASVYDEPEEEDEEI
UniProt Q0PBU4: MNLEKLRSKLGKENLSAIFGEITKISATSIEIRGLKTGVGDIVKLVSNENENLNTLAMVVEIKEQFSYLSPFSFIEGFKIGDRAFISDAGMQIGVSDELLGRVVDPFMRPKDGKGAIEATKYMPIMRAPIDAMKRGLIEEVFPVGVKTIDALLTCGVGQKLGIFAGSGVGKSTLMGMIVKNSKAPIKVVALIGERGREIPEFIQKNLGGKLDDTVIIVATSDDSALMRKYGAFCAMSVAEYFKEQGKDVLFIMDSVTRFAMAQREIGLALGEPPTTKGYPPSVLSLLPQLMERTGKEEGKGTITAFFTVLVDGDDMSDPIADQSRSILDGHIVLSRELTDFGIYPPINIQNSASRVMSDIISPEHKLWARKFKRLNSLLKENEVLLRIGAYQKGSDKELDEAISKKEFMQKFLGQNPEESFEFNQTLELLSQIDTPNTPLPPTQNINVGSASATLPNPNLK
UniProt Q0PC74: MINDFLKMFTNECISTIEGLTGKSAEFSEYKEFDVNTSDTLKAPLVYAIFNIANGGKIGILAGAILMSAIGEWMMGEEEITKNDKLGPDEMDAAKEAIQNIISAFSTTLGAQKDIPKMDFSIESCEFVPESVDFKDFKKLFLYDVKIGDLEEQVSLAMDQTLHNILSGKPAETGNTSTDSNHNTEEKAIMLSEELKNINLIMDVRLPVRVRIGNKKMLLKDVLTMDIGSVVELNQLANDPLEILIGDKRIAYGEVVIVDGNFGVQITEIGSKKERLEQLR
UniProt Q0PBI9: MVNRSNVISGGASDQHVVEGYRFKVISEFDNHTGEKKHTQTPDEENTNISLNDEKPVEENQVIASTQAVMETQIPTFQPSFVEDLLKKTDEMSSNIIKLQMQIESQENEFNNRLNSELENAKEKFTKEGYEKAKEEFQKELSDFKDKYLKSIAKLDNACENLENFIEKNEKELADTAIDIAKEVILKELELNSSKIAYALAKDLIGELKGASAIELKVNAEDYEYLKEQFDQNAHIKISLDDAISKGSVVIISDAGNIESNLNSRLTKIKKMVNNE
UniProt Q0PBJ0: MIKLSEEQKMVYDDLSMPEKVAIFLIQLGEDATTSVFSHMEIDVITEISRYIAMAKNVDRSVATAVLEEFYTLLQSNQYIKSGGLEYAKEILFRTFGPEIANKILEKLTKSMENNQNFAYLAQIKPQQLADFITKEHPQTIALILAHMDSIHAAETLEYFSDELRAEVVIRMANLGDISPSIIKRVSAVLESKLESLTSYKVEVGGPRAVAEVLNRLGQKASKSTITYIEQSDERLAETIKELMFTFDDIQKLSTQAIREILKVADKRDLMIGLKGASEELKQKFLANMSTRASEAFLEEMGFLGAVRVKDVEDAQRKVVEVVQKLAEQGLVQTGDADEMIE
UniProt Q0PBJ1: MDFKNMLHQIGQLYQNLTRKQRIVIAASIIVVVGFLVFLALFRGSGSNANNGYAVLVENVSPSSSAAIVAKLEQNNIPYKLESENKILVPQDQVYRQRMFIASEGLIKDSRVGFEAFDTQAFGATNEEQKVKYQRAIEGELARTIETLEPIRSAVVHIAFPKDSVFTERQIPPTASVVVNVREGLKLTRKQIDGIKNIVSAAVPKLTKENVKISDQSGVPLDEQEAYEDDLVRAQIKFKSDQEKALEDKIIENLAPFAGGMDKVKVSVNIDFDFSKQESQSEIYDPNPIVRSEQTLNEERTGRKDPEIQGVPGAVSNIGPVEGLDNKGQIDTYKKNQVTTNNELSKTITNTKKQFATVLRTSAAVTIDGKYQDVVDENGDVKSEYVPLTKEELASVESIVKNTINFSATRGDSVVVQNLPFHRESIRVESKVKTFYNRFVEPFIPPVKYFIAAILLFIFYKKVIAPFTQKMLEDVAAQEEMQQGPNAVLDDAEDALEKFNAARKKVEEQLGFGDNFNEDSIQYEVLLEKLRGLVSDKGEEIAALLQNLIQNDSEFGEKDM

Experiment [1] deals with FLAG-FliN (Campylobacter jejuni 81-176) (UniProt O32370).
The target of experiment [2] is FliM-FLAG (Campylobacter jejuni 81-176) (UniProt Q0PC73).
The target in experiment [3] is FLAG-FliI (Campylobacter jejuni 81-176) (UniProt Q0PBU4).
Experiment [4] concerns the target FLAG-FliY (Campylobacter jejuni 81-176) (UniProt Q0PC74).
Experiment [5] concerns the target FLAG-FliH (Campylobacter jejuni 81-176) (UniProt Q0PBI9).
Experiment [6] deals with FliG-FLAG (Campylobacter jejuni 81-176) (UniProt Q0PBJ0).

These are yes or no findings as the source states them, for the method shown. Binding seen in cells or lysates may run through a third protein. Some results given as binding are weak or reduced against the parent protein; the word gives no strength.

With FliY (from UniProt Q0PC74 1-280), the binding result in experiment [1] and in experiment [2] was “binds” each time.

On to FliH (from UniProt Q0PBI9 1-276), for which the figures for the binding result in experiment [3], in experiment [1] and in experiment [2] were “binds”, “no binding” and “binds”, respectively.

As for FliF (from UniProt Q0PBJ1 1-560), the binding result in experiment [4] and in experiment [2] was “binds weakly” in each case.

FliN (from UniProt O32370 1-102): the binding entry in experiment [5] and in experiment [2] was “no binding” each time.

In the case of FliG (from UniProt Q0PBJ0 1-342), the binding result in experiment [4] and in experiment [2] was “binds weakly” each time.

For FliM (from UniProt Q0PC73 1-359), the binding entry in experiment [5] is listed as “binds”; in experiment [1], “no binding”; in experiment [4], “binds”; in experiment [6], “binds weakly”.

The record behind these values is paper PMC6946799.
